Experimental data from PubChem BioAssay AID624202 (National Center for Advancing Translational Sciences (NCATS), 2012).
Among all 380,000 compounds or so, about 4,000 (1.1%) were called active. This list was built around the results that the source calls inconclusive (neither active nor inactive); the mix of calls is not that of the screen. Calls follow the shape of the dose curve; as a rule, active = well fitted activation curve with a large enough effect; inconclusive = small, poorly fitted or top-dose-only effect; inactive = no such curve, though single readings can be large or run the other way. A potency beside an inconclusive call is a rough fit, not a confirmed value.

assay: qHTS Assay to Identify Small Molecule Activators of BRCA1 Expression; settings: MCF7-BRCA1-FFLuc reporter, luminescence, 48 h; activation: at 46.1 µM (top of the series), scaled: vehicle 0%, 10 µM genistein 100% unless noted; also: nearly all actives have a fitted effect of over 80% in size
Method in brief: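 MCF7 cells carrying a BRCA1-firefly luciferase reporter (2000 cells/well, phenol-red free MEM) were attached for 2 h at 37 °C, then given compounds for 48 h. Luminescence was read 15 min after luciferase reagent; activity normalized to genistein (10 microM) and DMSO.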
Potency is read from the fitted curve at half-maximal effect; tags tell the direction and shape of the fitted curve.

Structure (SMILES) | Potency | activation
CCCCCC(=O)N/N=C/c1ccc(N(C)C)cc1 | inconclusive: 17.8 µM [activator, single point] | 
COCCn1c(C)cc(C(=O)CSc2nc3ccccc3c(=O)n2Cc2ccco2)c1C |  | inconclusive: -1.72% [activator]
CCOc1ccc(C(=O)NCCc2csc(-c3cccnc3)n2)cc1 | inactive | 
Cc1cc(C)c2c(N)c(C(=O)N/N=C/c3cccs3)sc2n1 | inconclusive: 1 µM [activator, full curve, poor fit] | 
COc1ccc(C(=O)COC(=O)CN2C(=O)C3C4C=CC(C5CC45)C3C2=O)cc1 (stereo unspecified) | inconclusive: 25.1 µM [activator, single point] | 
COc1cc(-c2cnc3c(NC=O)cc(-c4ccc(C)cc4)cn23)cc(OC)c1OC |  | inconclusive: -59.7% [activator]
Cc1cc2cc(NC(=O)c3ccco3)ccc2[nH]1 | inconclusive: 31.6 µM [activator, single point] | 
Nc1nc(CSc2ccccn2)nc(Nc2ccccc2)n1 | inconclusive: 2.51 µM [activator, full curve, poor fit] | 
O=C(N/N=C/c1ccc(Br)cc1)c1ccc(Br)o1 | active: 7.94 µM | 
NC(=O)C1CCCN(C(=O)c2ccc(-c3cccc(Cl)c3Cl)o2)C1 (stereo unspecified) | inconclusive: 2 µM [activator, partial curve, poor fit] | 
COC(=O)CCc1c[nH]c2ccc([N+](=O)[O-])cc12 | inconclusive: 35.5 µM [activator, single point] | 
Clc1ccc2nc(N3CCN(c4ccccc4)CC3)sc2c1 | inconclusive: 0.631 µM [activator, full curve, poor fit] | 
O=C(COc1ccccc1)Nc1nc2ccccc2[nH]1 | active: 12.6 µM | 
O=c1c2c(nc3cc(-c4ccc(F)cc4)[nH]n13)CCC2 | inconclusive: 1.58 µM [activator, partial curve, poor fit] | 
Cc1[nH]nc(Nc2ccc(Br)cc2)c1[N+](=O)[O-] | inconclusive: 1.58 µM [activator, partial curve, poor fit] | 
CCc1ccc2oc(-c3ccc(NC(C)=O)cc3)nc2c1 | inconclusive: 0.631 µM [activator, full curve, poor fit] | 
COC(=O)c1[nH]c(C)c(/C(O)=C2\C(=O)C(=O)N(CCN3CCOCC3)C2c2cccs2)c1C (stereo unspecified) | inactive | 
CCCNC(=O)c1cc(-c2ccc3c(c2)OCO3)on1 | inconclusive: 0.316 µM [activator, full curve, poor fit] | 
O=C(Nc1cccc(-c2ccc(N3CCOCC3)nn2)c1)c1ccccc1 | inconclusive: 7.08 µM [activator, full curve, poor fit] | 
CC(C)c1ccc(NC(=S)Nc2ccc3cn[nH]c3c2)cc1 | inconclusive: 28.2 µM [activator, single point] | 
Cc1ccc(/C=C/C(=O)Nc2nccs2)o1 | inconclusive: 3.55 µM [activator, full curve, poor fit] | 
COc1ccccc1C(=O)C1CCCN(C(=O)Nc2ccccc2F)C1 (stereo unspecified) | inconclusive: 31.6 µM [activator, single point] | 
COc1cc(C)ccc1OCc1cc(C(=O)N2CCN(C)C[C@@H]2c2ccccc2)no1 | inconclusive: 35.5 µM [activator, single point] | 

Structure (SMILES) | Potency | activation
CCOc1ccc(-c2n[nH]c(C(=O)NN)c2C)cc1 | active: 10 µM | 
N#Cc1cccn1-c1nccc(-c2cccs2)n1 | inactive | 
Cc1ccc(-c2csc(NS(=O)(=O)c3cccc(F)c3)n2)o1 | inactive | 
O=C1c2ccccc2C(=O)N1CCCCSc1nnc2c(Cl)cc(Cl)cn12 | inactive | 
Oc1ccc(-c2cnc3ccccc3n2)cc1 | inconclusive: 2.51 µM [activator, partial curve, poor fit] | 
Cc1nnc(NC(=O)c2sc3nc(-c4cccs4)cc(C(F)(F)F)c3c2N)s1 | inactive | 
COc1ccc(C(=O)Nc2ccccc2C(=O)N/N=C/c2cccc3ccccc23)cc1 | inactive | 
Cc1cccc(C(=O)Nc2ccc3c(c2)C(=O)N(CC(C)C)C3=O)c1 | inconclusive: 8.91 µM [activator, partial curve, poor fit] | 
O=C1C[C@H]2[C@H](CO)[C@@H](OC(=O)c3ccc(-c4ccccc4)cc3)C[C@H]2O1 | active: 12.6 µM | 
CC(C)Oc1ccc(C(=O)NC(=S)Nc2ccc(CN3CCOCC3)cc2)cc1 | inactive | 
O=C(NCCc1ccc(Cl)cc1)c1cccs1 | inconclusive: 12.6 µM [activator, partial curve, poor fit] | 
Cc1cc(C(=O)CN2C(=O)NC3(CCCCC3C)C2=O)c(C)n1Cc1cccs1 (stereo unspecified) | active: 4.47 µM | 
COc1ccc2c(-c3cc4ccc(OCc5ccc(F)cc5)cc4oc3=O)cc(=O)oc2c1 | inactive | 
CNc1cccc2c1C(=O)c1ccccc1C2=O | inconclusive: 11.2 µM [activator, partial curve, poor fit] | 
O=C(O)c1ccccc1C(=O)Nc1ccc(-c2csc(-c3ccccc3)n2)cc1 | active: 7.08 µM | 
S=C(c1ccc(-c2cccc(Cl)c2)o1)N1CCOCC1 | active: 3.55 µM | 
O=[N+]([O-])c1ccc(/C=N/Nc2ccccn2)cc1 | active: 1.41 µM | 
CC(c1ccccc1)c1nnc(NC(=O)Nc2ccccc2F)s1 (stereo unspecified) | inconclusive: 15.8 µM [activator, partial curve, poor fit] | 
Cn1c(CNC(=O)C(Cc2ccccc2)NC(=O)c2ccccc2)cc(=O)n(C)c1=O (stereo unspecified) | inactive | 
O=C(Nc1cccc(-c2nnc(-c3ccccc3)o2)c1)C1CCCCC1 | inconclusive: 2.82 µM [activator, full curve, poor fit] | 
CN(C)S(=O)(=O)c1ccc(NC(=O)c2ccc3ncsc3c2)cc1 | inconclusive: 11.2 µM [activator, partial curve, poor fit] | 
Cc1cc(NC(=O)c2cccc(COc3ccc(Br)cc3)c2)no1 |  | inconclusive: -56.3% [activator]
CCC(=O)NCCc1sc2nc(-c3ccc(OC)cc3)nn2c1C | active: 5.01 µM | 
